Some of the results follow. These are noisy estimates, calculated here from bound and input reads.
target: T1, Pho4 (S. cerevisiae) (UniProt P07270); assay: relative binding free energy (BET-seq); higher = weaker binding; details: reference: library average
T1 sequence: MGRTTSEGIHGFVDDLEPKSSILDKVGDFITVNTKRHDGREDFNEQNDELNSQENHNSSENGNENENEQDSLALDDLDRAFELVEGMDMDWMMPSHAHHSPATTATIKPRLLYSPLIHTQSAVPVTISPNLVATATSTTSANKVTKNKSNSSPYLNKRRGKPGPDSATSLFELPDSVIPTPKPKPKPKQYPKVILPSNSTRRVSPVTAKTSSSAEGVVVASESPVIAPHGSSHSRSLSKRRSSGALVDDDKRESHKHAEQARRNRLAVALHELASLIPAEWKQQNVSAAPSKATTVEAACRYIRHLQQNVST

Q: ATGTGCACGTGGAATA was tested. Which “relative binding free energy” value did it give?
A: -0.05 kcal/mol

Q: CGTTTCACGTGAGTGG was tested. Which “relative binding free energy” value did it give?
A: 0.21 kcal/mol

Q: GAGGGCACGTGAGAGC was tested. Which “relative binding free energy” value did it give?
A: 0.26 kcal/mol

Q: For GGTCGCACGTGCTTTT, which “relative binding free energy” value is on record?
A: 0.02 kcal/mol

Q: How did the “relative binding free energy” value turn out when AATTACACGTGTGAGA was run?
A: 0.18 kcal/mol

Q: With ATGTGCACGTGAGTCG as the sequence, how does the “relative binding free energy” value read?
A: 0.11 kcal/mol

Q: For CTGGTCACGTGCCGTG, which “relative binding free energy” value is on record?
A: 0.11 kcal/mol

Q: For GTGGCCACGTGGGTCG, which “relative binding free energy” value is on record?
A: -0.05 kcal/mol

Q: AGGCGCACGTGCGTGT was tested. Which “relative binding free energy” value did it give?
A: -0.13 kcal/mol

Q: How did the “relative binding free energy” value turn out when CGGTTCACGTGAAAGT was run?
A: 0.44 kcal/mol

Q: TGTGGCACGTGAAGTT was tested. Which “relative binding free energy” value did it give?
A: 0.22 kcal/mol

Q: TAGGCCACGTGTGGGC was tested. Which “relative binding free energy” value did it give?
A: -0.16 kcal/mol

Q: Which “relative binding free energy” value does the source give for ATAGACACGTGGTCTG here?
A: -0.08 kcal/mol

Q: Which “relative binding free energy” value does the source give for TATGCCACGTGCGGTG here?
A: -0.15 kcal/mol

Q: With TTGAACACGTGGTCGT as the sequence, how does the “relative binding free energy” value read?
A: -0.24 kcal/mol

Q: Which “relative binding free energy” value does the source give for GGTCTCACGTGGTTGA here?
A: 0.1 kcal/mol

Q: Which “relative binding free energy” value does the source give for CTGTGCACGTGAGCGT here?
A: 0.03 kcal/mol

Q: Which “relative binding free energy” value does the source give for GCTGACACGTGGGGGG here?
A: 0.02 kcal/mol

Q: GGGTGCACGTGTCAAT was tested. Which “relative binding free energy” value did it give?
A: -0.02 kcal/mol

Q: GGGGACACGTGGTCGC was tested. Which “relative binding free energy” value did it give?
A: 0.03 kcal/mol

Q: For GTTTTCACGTGGTGGT, which “relative binding free energy” value is on record?
A: 0.3 kcal/mol

Q: How did the “relative binding free energy” value turn out when TGTGACACGTGATGAT was run?
A: 0.24 kcal/mol

Q: For TTGTTCACGTGGTTGA, which “relative binding free energy” value is on record?
A: 0.24 kcal/mol

Q: Which “relative binding free energy” value does the source give for TTTTTCACGTGAAGGC here?
A: 0.19 kcal/mol

Q: For CGTAACACGTGTGGGG, which “relative binding free energy” value is on record?
A: 0.08 kcal/mol

Q: How did the “relative binding free energy” value turn out when CCGGACACGTGATGGG was run?
A: 0.22 kcal/mol

Q: TTTGCCACGTGGAGGA was tested. Which “relative binding free energy” value did it give?
A: 0.02 kcal/mol

Q: AGTTTCACGTGACGGT was tested. Which “relative binding free energy” value did it give?
A: 0.4 kcal/mol

Q: With GTTTACACGTGTGCTG as the sequence, how does the “relative binding free energy” value read?
A: 0.16 kcal/mol

Q: For TGGGGCACGTGTCTGA, which “relative binding free energy” value is on record?
A: -0.14 kcal/mol

Q: CTGGCCACGTGGGGTT was tested. Which “relative binding free energy” value did it give?
A: -0.22 kcal/mol

Q: How did the “relative binding free energy” value turn out when TTGGACACGTGTCGAT was run?
A: 0.18 kcal/mol

Q: Which “relative binding free energy” value does the source give for AGGAGCACGTGTAGCT here?
A: -0.02 kcal/mol

Q: How did the “relative binding free energy” value turn out when TATGTCACGTGAAAAG was run?
A: 0.08 kcal/mol

Q: GGGACCACGTGTAGTT was tested. Which “relative binding free energy” value did it give?
A: 0.01 kcal/mol

Q: Which “relative binding free energy” value does the source give for GTGAACACGTGAGGCT here?
A: 0.32 kcal/mol

Q: With AGTCGCACGTGTAGGT as the sequence, how does the “relative binding free energy” value read?
A: 0.03 kcal/mol

Q: How did the “relative binding free energy” value turn out when TGCAACACGTGGGTGT was run?
A: -0.1 kcal/mol

Q: How did the “relative binding free energy” value turn out when GGGGCCACGTGAGGTA was run?
A: 0.13 kcal/mol

Q: CGGGACACGTGCGGGT was tested. Which “relative binding free energy” value did it give?
A: 0.03 kcal/mol

Q: With GTTGTCACGTGGGTCG as the sequence, how does the “relative binding free energy” value read?
A: -0.01 kcal/mol

Q: CGGTTCACGTGAGTAG was tested. Which “relative binding free energy” value did it give?
A: 0.27 kcal/mol

Q: Which “relative binding free energy” value does the source give for ACTGGCACGTGACGGG here?
A: -0.09 kcal/mol

Q: How did the “relative binding free energy” value turn out when GTGGTCACGTGGCGCG was run?
A: 0.03 kcal/mol

Q: TGGCTCACGTGGGATG was tested. Which “relative binding free energy” value did it give?
A: 0.02 kcal/mol

Q: How did the “relative binding free energy” value turn out when GGTGTCACGTGGGGTG was run?
A: 0.07 kcal/mol

Q: With TGGTACACGTGTTGGG as the sequence, how does the “relative binding free energy” value read?
A: 0.14 kcal/mol

Q: Which “relative binding free energy” value does the source give for ATGTACACGTGTTATA here?
A: 0.04 kcal/mol

Q: How did the “relative binding free energy” value turn out when GGTGGCACGTGATGAA was run?
A: -0.05 kcal/mol

Q: Which “relative binding free energy” value does the source give for TATCGCACGTGAGGTA here?
A: 0.16 kcal/mol

Q: Which “relative binding free energy” value does the source give for GAGCGCACGTGTGTCG here?
A: 0.11 kcal/mol

Q: For ACTGTCACGTGATTGT, which “relative binding free energy” value is on record?
A: 0.16 kcal/mol

Q: With TTGATCACGTGGTTTT as the sequence, how does the “relative binding free energy” value read?
A: 0.07 kcal/mol

Q: With TGTTGCACGTGATCCT as the sequence, how does the “relative binding free energy” value read?
A: 0.16 kcal/mol

Q: Which “relative binding free energy” value does the source give for TAGCACACGTGTGGGA here?
A: 0.21 kcal/mol

Q: With CTGTGCACGTGGAAGA as the sequence, how does the “relative binding free energy” value read?
A: 0.11 kcal/mol

Q: How did the “relative binding free energy” value turn out when GTATACACGTGTAGGT was run?
A: 0.08 kcal/mol

Q: GTGTGCACGTGGGCTT was tested. Which “relative binding free energy” value did it give?
A: -0.08 kcal/mol

Q: AACTTCACGTGGTGGG was tested. Which “relative binding free energy” value did it give?
A: 0.34 kcal/mol

Q: How did the “relative binding free energy” value turn out when GGATACACGTGGGTCG was run?
A: 0.08 kcal/mol

Q: How did the “relative binding free energy” value turn out when ATTGCCACGTGTGTTT was run?
A: 0.01 kcal/mol

Q: TAGATCACGTGCGGTT was tested. Which “relative binding free energy” value did it give?
A: 0.21 kcal/mol

Q: With CTTCTCACGTGTGGGA as the sequence, how does the “relative binding free energy” value read?
A: 0.24 kcal/mol

Q: With AGATGCACGTGTAGAA as the sequence, how does the “relative binding free energy” value read?
A: 0.06 kcal/mol

Q: With TGGAGCACGTGGTACG as the sequence, how does the “relative binding free energy” value read?
A: -0.18 kcal/mol

Q: Which “relative binding free energy” value does the source give for GGTCGCACGTGCGGGG here?
A: -0.03 kcal/mol

Q: Which “relative binding free energy” value does the source give for ATAAGCACGTGGCGTA here?
A: -0.12 kcal/mol

Q: How did the “relative binding free energy” value turn out when TAGGGCACGTGAGTAC was run?
A: -0.02 kcal/mol

Q: Which “relative binding free energy” value does the source give for GGCGGCACGTGTTAGG here?
A: 0.02 kcal/mol

Q: With TCGGCCACGTGGGCGG as the sequence, how does the “relative binding free energy” value read?
A: -0.18 kcal/mol

Q: With GGTATCACGTGGTATT as the sequence, how does the “relative binding free energy” value read?
A: 0.07 kcal/mol

Q: Which “relative binding free energy” value does the source give for TGGTTCACGTGTTATT here?
A: 0.3 kcal/mol

Q: With TGCAACACGTGAGGTG as the sequence, how does the “relative binding free energy” value read?
A: 0.19 kcal/mol

Q: Which “relative binding free energy” value does the source give for TAATGCACGTGGGGGA here?
A: -0.27 kcal/mol

Q: With GTTTACACGTGGTATC as the sequence, how does the “relative binding free energy” value read?
A: 0.19 kcal/mol

Q: With ATTATCACGTGGGGCT as the sequence, how does the “relative binding free energy” value read?
A: -0.11 kcal/mol

Q: How did the “relative binding free energy” value turn out when TATGACACGTGGTATA was run?
A: -0.04 kcal/mol

Q: Which “relative binding free energy” value does the source give for CATATCACGTGGATTG here?
A: 0.07 kcal/mol

Q: How did the “relative binding free energy” value turn out when GTTGGCACGTGGTATT was run?
A: -0.06 kcal/mol

Q: How did the “relative binding free energy” value turn out when GGTCGCACGTGTGGAA was run?
A: 0.07 kcal/mol

Q: With GGTATCACGTGCTAGG as the sequence, how does the “relative binding free energy” value read?
A: -0.03 kcal/mol

Q: GCAGGCACGTGATGTG was tested. Which “relative binding free energy” value did it give?
A: -0.04 kcal/mol

Q: For GCTTGCACGTGAATGT, which “relative binding free energy” value is on record?
A: 0.26 kcal/mol

Q: How did the “relative binding free energy” value turn out when TCAGGCACGTGTTTAG was run?
A: -0.12 kcal/mol

Q: How did the “relative binding free energy” value turn out when AGTTGCACGTGGTGTT was run?
A: -0.1 kcal/mol

Q: Which “relative binding free energy” value does the source give for CTGAGCACGTGGTGTA here?
A: -0.2 kcal/mol

Q: For GGTCTCACGTGGATAT, which “relative binding free energy” value is on record?
A: 0.22 kcal/mol

Q: With AGCTTCACGTGTTGTT as the sequence, how does the “relative binding free energy” value read?
A: 0.23 kcal/mol

Q: How did the “relative binding free energy” value turn out when ATGTACACGTGTCAGG was run?
A: -0.08 kcal/mol

Q: GAGTTCACGTGGGGAC was tested. Which “relative binding free energy” value did it give?
A: 0.29 kcal/mol

Q: How did the “relative binding free energy” value turn out when GATAACACGTGCTTGT was run?
A: 0.13 kcal/mol

Q: With GTAGGCACGTGATGTT as the sequence, how does the “relative binding free energy” value read?
A: 0.02 kcal/mol

Q: Which “relative binding free energy” value does the source give for TGGACCACGTGGTTTT here?
A: -0.08 kcal/mol

Q: How did the “relative binding free energy” value turn out when AGGGACACGTGTTAGT was run?
A: 0.05 kcal/mol

Q: For GTTTACACGTGGGAAT, which “relative binding free energy” value is on record?
A: 0.16 kcal/mol

Q: For ATTTGCACGTGTATGG, which “relative binding free energy” value is on record?
A: 0.09 kcal/mol

Q: Which “relative binding free energy” value does the source give for AAGGTCACGTGATATT here?
A: 0.18 kcal/mol

Q: With CTATACACGTGTATGG as the sequence, how does the “relative binding free energy” value read?
A: 0.08 kcal/mol

Q: Which “relative binding free energy” value does the source give for GGTAGCACGTGCGTAG here?
A: -0.1 kcal/mol

Q: How did the “relative binding free energy” value turn out when GATTTCACGTGGGAGG was run?
A: 0.25 kcal/mol

Q: CGGTACACGTGCATGG was tested. Which “relative binding free energy” value did it give?
A: 0.05 kcal/mol

Q: How did the “relative binding free energy” value turn out when TAAGTCACGTGTTTAT was run?
A: 0.01 kcal/mol

Q: With ATGTTCACGTGGAAAT as the sequence, how does the “relative binding free energy” value read?
A: 0.25 kcal/mol

Q: With TACTTCACGTGGTTGG as the sequence, how does the “relative binding free energy” value read?
A: 0.18 kcal/mol

Q: GGTTTCACGTGCTGTT was tested. Which “relative binding free energy” value did it give?
A: 0.34 kcal/mol

Q: AGTGACACGTGCTTGG was tested. Which “relative binding free energy” value did it give?
A: -0.11 kcal/mol

Q: GGCTGCACGTGTATTT was tested. Which “relative binding free energy” value did it give?
A: 0.18 kcal/mol

Q: For GTTGACACGTGGAGCG, which “relative binding free energy” value is on record?
A: 0.24 kcal/mol

Q: How did the “relative binding free energy” value turn out when GAGGTCACGTGGGGAG was run?
A: 0.09 kcal/mol

Q: For CGTGGCACGTGGAGGT, which “relative binding free energy” value is on record?
A: 0.01 kcal/mol

Q: GGGATCACGTGTTAAG was tested. Which “relative binding free energy” value did it give?
A: 0.12 kcal/mol

Q: How did the “relative binding free energy” value turn out when TTCTACACGTGGTGTG was run?
A: -0.08 kcal/mol

Q: For CTGGTCACGTGATGGT, which “relative binding free energy” value is on record?
A: 0.2 kcal/mol

Q: How did the “relative binding free energy” value turn out when TTGGGCACGTGAGCGG was run?
A: 0.06 kcal/mol

Q: How did the “relative binding free energy” value turn out when ATGTTCACGTGGTAGA was run?
A: 0.13 kcal/mol
